Laboratory results from article PMC8231349 (Journal of Enzyme Inhibition and Medicinal Chemistry, 2021).

How the values were obtained:
[1] = tested on: human prostate cancer cells (DU145); test: MTT cell viability assay, DU145; type: cell-based; conditions: DU145 cells, 1, 10 and 50 μM, 72 h
Experimental: (§1) Experiments were performed on human prostate cancer cells (DU145; ATCC HTB-81), human lung cancer cells (A549; ATCC CCL-185-LUC2) and human bronchial epithelium cells (BEAS-2B; ATCC CRL-9609). Cells were grown in Dulbecco's modified Eagle's medium (DMEM) supplemented with 10% of heat-inactivated foetal bovine serum (FBS), 100 U/ml penicillin and 100 μg/ml streptomycin (Sigma-Aldrich, Steinheim, Germany). Cells were incubated at 37 °C in a humidified atmosphere with 5% CO2. […] Cells were seeded into 96-well plates at a density of 7,0 × 10[3] cells/well in 100 µl of culture medium. After 24 h, cells were treated with the compounds at three different concentrations (1 µM, 10 µM and 50 µM) for 72 h. Following treatments, 0.5 mg/ml of 3-[4,5-dimethylthiazol-2-yl]-2,5-diphenyltetrazolium bromide (MTT) (Sigma Aldrich) was added to each well and incubated for 4 h at 37 °C. Finally, DMSO was used to dissolve formazan salts and absorbance was measured at 570 nm in a microplate reader (Biotek Synergy-HT). […]
(§2) Compound 3 was preliminarily assessed for its cytotoxic activity towards human prostate and lung cancer cell lines (DU145 and A549, respectively), in which the overexpression of the HO-1 has been confirmed[46]^,[47]. […] Cell survival was calculated compared to untreated controls for 72 h. At the end of treatment, cell viability was evaluated using the MTT assay. […]

[2] = tested on: esterase from the porcine liver; test: In vitro stability in porcine esterase solution (HPLC); type: in vitro ADME; design: half-life: dose or concentration left out as unconfirmed
Experimental: The HPLC analysis of samples at various time intervals from in vitro stability in different buffers and porcine esterase solution was performed on Shimadzu Prominence-i LC-2030C 3 D Plus equipped with RID20A. Detector chromatographic separation were carried out using Chromolith SpeedROD RP […], Merck. Spectra were analysed in 200–800 nm range with 1.2 nm resolution. The column was maintained at 30 °C and eluted under gradient conditions from 100% to 0% of eluent A over 3 min, at a flow rate of 5 ml min^−1. Eluent A: water/trifluoroacetic acid (0.1%, v/v); eluent B: acetonitrile/ trifluoroacetic acid (0.1%, v/v).
0.001 g of lyophilised powder of esterase from the porcine liver (Sigma-Aldrich, St. Louis, Missouri, USA) was reconstituted in 1.0 ml PBS buffer (0.01 M, pH 7.4) to make an aqueous porcine esterase solution (5 U/mL), and then pre-thermostated at 37 °C. To a test tube containing 1.85 ml of PBS buffer, 0.15 ml from the stock solution of the test compound was added. The mixture was then stirred and thermostated in a sand bath at 37 °C, and 1.0 ml of the porcine esterase solution was added to initiate the enzymatic reaction. For the negative control reaction, the volume of porcine esterase solution was replaced by phosphate buffer. Aliquots (0.3 ml) were withdrawn at 0, 30, 60, 120, 180, and 240 min, and quenched with cold acetonitrile (0.7 ml)[28]. The samples were centrifuged for 6 min at 10,000 rpm, and supernatants were analysed by HPLC to check the amounts (area under the curve, AUC) of the remaining intact compound. All the experiments were performed in triplicate. Pseudo-first-order rate constant for the hydrolysis was determined from the slope of linear plots of the natural logarithm (ln) of the AUC of the peak at time t (AUCt) against time. Half-life (t1/2) was calculated according to Equation (1): (1) t1/2 = ln 2/k were k is the pseudo-first-order rate constant.
Similarly, the parent compound 1 should be efficiently regenerated. Therefore, the enzymatic stability of 3 in porcine esterase solution was investigated.

[3] = tested on: human lung cancer cells (A549); test: MTT cell viability assay, A549; type: cell-based; conditions: 72 h
Experimental: as §1, §2

Detection of intact compound after incubation ([2]; 24 h incubation in porcine esterase solution): not detected | half-life ([2]; pig, porcine liver esterase solution, porcine esterase solution, PBS pH 7.4, 37 °C, read-out: Half-life (t1/2) of hydrolysis): 2.27 h | Pseudo-first-order rate constant k of hydrolysis ([2]; porcine esterase solution, PBS pH 7.4, 37 °C): 0.00507 min⁻¹ | IC50 ([3]; Homo sapiens, A549 cells, MTT): 1450 ± 1040 nM | melting point: 172 to 174.5 °C
Structure (SMILES): O=C(CCC(=O)OC(Cn1ccnc1)c1cccc(Br)c1)OCn1cc(F)c(=O)[nH]c1=O (stereo not shown) [Compound 3, 1‐[1‐(3‐bromophenyl)‐2‐(1H‐imidazol‐1‐yl)ethyl]4‐(5‐fluoro‐2,4‐dioxo‐1,2,3,4‐tetrahydropyrimidin‐1‐yl)methyl butanedioate]
Effect on cell viability [1]: significant dose-dependent effect | Effect on cell viability ([3]; A549 cells, 1, 10 and 50 μM): significant dose-dependent effect
